Our source for the self-cleavage values is the RNAGym collection of RNA variant scans (doi:10.7554/elife.90254).

The source gives no read counts; variants with many changes may rest on few reads.

B1: OR4K15 (parent)
chain: GUUAACGGUCAUAGGCCAUGGAAACUAGGAGCACCAUUUCGCUGCCAGUGAAGAAAUGAACAAAGAAAAUCUGGGCCAGGCAGGCAUCAAAAGAAAUAGUCUUGCGCUCAACCAGAAAGUCUGUAAUCAUUUUAAGGGUA

This data set covers variants of B1. Description: self-cleavage, relative activity (ratio to wild type); higher = more cleavage; in vitro, sequencing; the parent is a self-cleaving ribozyme.
A64G A125G A134G: the self-cleavage turned out to be 0.51.

For the variant A66G A68G A95G A96U A134U, the self-cleavage turned out to be 1.07. Take A67G A91G C113U U122C: the self-cleavage worked out at 0. As for U70A U87C U100C, the self-cleavage was determined as 2.1. The value for A64G G74A A111G was 0.02; that for A62U A68G A95G A129U was 1.52; that for A64G A68G U127C was 0.75.

On to A69U A92G A126U, for which the self-cleavage stood at 1.99. Regarding A63G A90G A111G, the self-cleavage came out at 0.

Regarding A68G A69U A126G, the self-cleavage is 1.18.

Regarding A68G U70A U103C, the self-cleavage is 0.46.

In the case of A68G U70C G123A A126G, the self-cleavage is 0.18. In the case of A69G U70C U122A U132C, the self-cleavage was found to be 0.17.

Take A63G A78G A90G: the self-cleavage turned out to be 0.16. Take A64G A111G A126C G136A: the self-cleavage turned out to be 0.01.

Consider A66G C71A G83A A95G, for which the self-cleavage is 1.13. With A62U A92G U132C, the self-cleavage is 0.78. With A63G A86G A91G, the self-cleavage was 0.05. On to A68C U102A U120A, for which the self-cleavage stood at 1.68. With A68G U72A A78U, the self-cleavage worked out at 0.21. On to A66G A90U A96G U100C U122C, for which the self-cleavage came out at 2.82. For the variant A67G A110U A125G, the self-cleavage stood at 0.64. Regarding A63G A86C A91U A95G A125G, the self-cleavage stood at 0.45.

Turning to A68G A89U A116G U120C U130C, the self-cleavage came to 0.25. On to A67G U72C U87C U139C, for which the self-cleavage was 0.29.

For the variant A66G A91C A117G, the self-cleavage amounted to 1.49. Take A68G U72C A125G: the self-cleavage worked out at 0.03. As to A67G U70C A116C U130C, the self-cleavage is 0.03. Take A64U A89G U120A: the self-cleavage was found to be 1.67. Turning to A67G A69G A90G A92G A95G, the self-cleavage worked out at 1.58. For the variant A67U A68G G106U, the self-cleavage amounted to 0.02. Turning to G65U A69G A82U A91G G138A, the self-cleavage came out at 0.09.

In the case of A64G A69G A98U U127C, the self-cleavage came out at 1.47. The value for A64G C77U A78U was 1.58; that for A66G A92G A140U was 1.6; that for A67U A68C A134G was 2.08.

A66U A89G A90G A92G: the self-cleavage turned out to be 0.31.

Consider A69U A96G A125G, for which the self-cleavage came to 0.95. The value for A67G A90G U139C was 1.43; that for A63G A67G U124A was 0.63. Regarding A68G U70C A126G, the self-cleavage came to 0.66.

Turning to A63U A96U A98G, the self-cleavage turned out to be 2.47. As for A69C A91U U108C, the self-cleavage stood at 0.01. On to A62U U87C U103C, for which the self-cleavage was determined as 0.94. Take A68U A111G A116G: the self-cleavage was 0.03. Turning to A64G A92G U122G, the self-cleavage is 1.64. As to A63U U72C U124C, the self-cleavage turned out to be 0.05. For A68G U70C A96G A116U, the self-cleavage was 0.04.

On to A64G A66G U120C, for which the self-cleavage is 1.56.

With A64G A82G G138U, the self-cleavage was found to be 0.68. For A67C U100C U127C, the self-cleavage was found to be 1.76. For A68G A69U U120A, the self-cleavage worked out at 2.03. The same measure for A63G A67G A86G: 1.4; for A63G A116G U130A: 0.21. For the variant A66G A68G C113U A118U, the self-cleavage came to 0.06. As for A63G G65U U97A U103C, the self-cleavage came to 1.43. With A63C A89U U108C A135U, the self-cleavage turned out to be 0.

Consider A67G A69U A78G G106U, for which the self-cleavage was 0.01. The value for A62U A116G A135U was 0.78; that for A64G A69G U130C was 0.36; that for A69U A78C U103C was 0.27. In the case of A63U A110G U133C, the self-cleavage was 0.16. Regarding A64G U72C A94G A126U, the self-cleavage worked out at 0.2. For A67G A110G A116U, the self-cleavage turned out to be 0.07. On to A69G A78G A118G U132C, for which the self-cleavage amounted to 0.14.

A69G A90G A96G U100C: the self-cleavage is 2.59. Turning to A63U A69G U72C, the self-cleavage was 0.42.

In the case of A67G A89G A111G, the self-cleavage came to 0.06. In the case of A63G A64G U87C A94G, the self-cleavage stood at 1.97. Regarding A64G G75C A78G U120C U139A, the self-cleavage amounted to 0.02. Regarding A68G A86G A94G, the self-cleavage came out at 1.32.

On to A66G U72A C76U, for which the self-cleavage came to 0.29. For the variant A64G A92C A94U A118G, the self-cleavage turned out to be 0.93. The same measure for A69U A78G U103C A111G U122C A129U: 0. Consider U70A A92G U108C, for which the self-cleavage amounted to 0.02. For A68G A95G U102C, the self-cleavage was 1.65. For the variant A67G U120C U122G, the self-cleavage turned out to be 2.36. As for A63G A69U U97C, the self-cleavage came out at 1.56.

In the case of U70A C121U A129G, the self-cleavage stood at 2.17. As for A66G G75A U87C A125G, the self-cleavage turned out to be 0.02. As for A64G A67G A78G A111G, the self-cleavage amounted to 0.03.

In the case of A68G A86G A95U, the self-cleavage was 1.3. The value for A63G U108A U122C A126G A135U was 0.01; that for A67G A94G U132A was 1.74; that for A64U A94G A118G U139C was 0.91. As for A69G A110G A118G A126G, the self-cleavage was determined as 0.

Take A66U A82U A89C: the self-cleavage was found to be 0.15. For A69G U87C U127C, the self-cleavage was 0.46. Turning to A63G G75U U87A, the self-cleavage came out at 0.06. In the case of A67G A92C A98G, the self-cleavage turned out to be 0.18. With A67G A94G A98U, the self-cleavage worked out at 1.79. The same measure for A63G U131C A135G: 1.32. Consider A66G A82G A96G, for which the self-cleavage was found to be 0.72.

Regarding A67G A126G U139C, the self-cleavage is 0.87. A66G U97A A117C: the self-cleavage is 0.38. With A68G G80U U102C A110G, the self-cleavage was determined as 0.02. Consider A66U C85U A94U U108C A118G, for which the self-cleavage stood at 0.02. Turning to A66G A68U A116G, the self-cleavage turned out to be 1.15. A64G A98U C101A: the self-cleavage came to 0.3. With A64G A66G C105U, the self-cleavage was found to be 0.05. With A67U A90G U120C U130C, the self-cleavage worked out at 0.3. In the case of A67G A116U U124C, the self-cleavage was 0.19. The same measure for A63G U102A C112G A129C: 0.01. On to A69G A89G U139C, for which the self-cleavage is 2.21.

Take A63G A64G A67G: the self-cleavage was determined as 0.93. Consider A67G A86G U103A, for which the self-cleavage came out at 0.61. As for A63G A89G A94G A111G A129U, the self-cleavage was 0.03. Turning to A66U A67G G75C A96C, the self-cleavage came out at 0.12. Take A62U A92G A110C A116U: the self-cleavage was 0.09. The value for A68G A86G A125G was 0.28; that for U70A A92G A96G was 0.53. A68G A91G A116G: the self-cleavage was 0.39.

With A66G C77U A140G, the self-cleavage was determined as 2.2.

Consider A68G A126U A129G, for which the self-cleavage was found to be 1.24. A64G C81U U127G: the self-cleavage is 0.12. For the variant A64G A69G U70C A118G, the self-cleavage came out at 0.2. Take A67G A78U A98G A118G: the self-cleavage amounted to 0.

Turning to A63G G75A A90G A117G, the self-cleavage is 0.13. With A64G A91U A118G, the self-cleavage was found to be 1.54. A66U A82G A96G: the self-cleavage stood at 0.99. Take A63G U70C A94G A135C: the self-cleavage was determined as 0.53. The value for A68G U70C A114U A116G A118G was 0.04.

Turning to A69G A92G U127C, the self-cleavage worked out at 0.54.

A64G U102A A110G: the self-cleavage came to 0.08. The value for G65U A82G U87A U124C was 0.29; that for A69G A91G U100C was 2.06. As to A64G U72A A117G, the self-cleavage came to 0.25. As to A63G A96G C121U, the self-cleavage came to 1.58. As to A63G U103C U130C, the self-cleavage stood at 1.23. The same measure for A69G A82U U127A: 0.23; for G65U C71U U124A: 0.05; for A68U A110G A117U: 0.05. The same measure for A69G A78G A92G U122A: 0.35; for A62U A66G G73U A125G: 0.03. The value for A67G A90G A126U was 1.18; that for A63G A90G A116G U122C was 0.05. For the variant A69G A78C A114U, the self-cleavage was 0.01. As to A69G A90G G138A, the self-cleavage worked out at 1.23.

Consider A63U A89U A94G A110G, for which the self-cleavage stood at 0.17. The value for A67G A69G U103C was 0.5; that for A64G A95G G104A was 0.03; that for A63G G79A A114G was 0.08.

Take A63G U70A U122A: the self-cleavage was 1.15. Consider A64G A90G A91G, for which the self-cleavage came to 1.19.

With A64U A67G A98G A118U U124C, the self-cleavage was 0.09.

Consider A66G A92G A94G A118G, for which the self-cleavage was determined as 1.15. Consider A67G U87A A95C, for which the self-cleavage came to 0.83.

Take U70A U72C A110G U122A: the self-cleavage worked out at 0.02. On to A66G A82G U87C, for which the self-cleavage worked out at 0.64. With A66G G106A A134G, the self-cleavage worked out at 0. As to A64G A67G A78C U87C U100G A129G, the self-cleavage amounted to 0.09. Turning to A67G A91G U100C A111G, the self-cleavage turned out to be 0.02. For A67G A95U U127C U131C, the self-cleavage came to 0.6. Regarding A68G U70C G80U U102C A111G, the self-cleavage was 0.01.

Take A67G A68G A126G: the self-cleavage was 0.98. In the case of A68G A78U A90C A111U, the self-cleavage amounted to 0.01. The same measure for A68C U72C A96G: 0.13. Consider A64G A125G G138A, for which the self-cleavage is 0.61. For the variant A62U A89C C105U, the self-cleavage came out at 0.28. The same measure for A66U A92G U122C U132C: 1.45; for A66G A110C A116C: 0.02. In the case of A62U A69U A111G, the self-cleavage worked out at 0.01.

A66U U97A U122C: the self-cleavage is 1.78.

A66G U72C A82U A125U: the self-cleavage is 0.07. For A63U U103C A117G, the self-cleavage turned out to be 1.82.

In the case of A66G A69U A110G, the self-cleavage came out at 0.33. Take A69G U103G U131C: the self-cleavage is 0.
